Results taken from PubChem BioAssay AID434955 (Southern Research Specialized Biocontainment Screening …, 2010).
The list shows a part of the results. These are further read-outs of the screen, such as a control signal, another cell line or another target. No call is given for them. Compounds called inactive in the main read-out are mostly missing here. Residues, ends and D or L forms follow the SMILES beside them. *: point of attachment. Cbz = O=C(OCc1ccccc1)*

Experiment: beta-lactam sensitization of Mtb H37Rv, H37Rv (AID 434955);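 also: growth measured after seven days incubation then overnight dye step; 0% = bacteria only wells and 100% = bacteria with antibiotic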
Conditions: M. tuberculosis H37Rv growth with meropenem, percent inhibition; measured here: primary screen without meropenem; at 25 µM

Compound | inhibition [%]
Cn1cnnc1SCC(=O)NC1CCCN(Cc2ccc(Cl)cc2)C1 (stereo unspecified) | -0.97
CCOC(=O)C1CCCN(C(=O)c2cc3c(C)nc4ccccc4c3o2)C1 (stereo unspecified) | 2.86
CN(CCc1ccccn1)C(=O)CN(C)S(=O)(=O)c1ccc2c(c1)c(=O)n(C)c(=O)n2C | 4.97
Cc1ccc(SCC(=O)O/N=C(\N)c2ccncc2)cc1 | 8.12
CCCCN(CC)CCCNC(=O)CS(=O)(=O)Cc1nc(-c2cccc(OC)c2)oc1C | -8.41
CCOC(=O)c1sc(NC(=O)/C=C/c2cnn(C)c2C)c(C(=O)OCC)c1C | -7.65
Cc1c(NC(=O)/C(C#N)=C/c2ccc(-c3cccc(Cl)c3)o2)c(=O)n(-c2ccccc2)n1C | -4.17
O=C(NC(=O)c1ccccc1Cl)C(=O)Nc1ccc(Cl)cc1 | -6
CC1(c2ccc3c(c2)OCO3)NC(=O)N(CC(=O)NCCC2=CCCCC2)C1=O (stereo unspecified) | 5.9
COc1ccc(/C=N/NC(=O)C(=O)N2CCCCCC2)cc1O | 5.18
COc1ccc(-n2ncc3c(NCc4ccccn4)ncnc32)cc1 | -8.18
CCC(=O)Nc1cccc(-c2ccc(N3CCCCC3)nn2)c1 | 2.67
CCCN1C(=O)S/C(=C\c2ccc(N3CCOCC3)o2)C1=O | 95.3
COc1cc(OC)c(C(=O)Nc2cccc3ccccc23)cc1OC | 17.5
CCOc1ccc(NC(=S)Nc2cccnc2)cc1 | 3.26
CNC(=O)c1c(NC(=O)c2ccc(S(=O)(=O)N3CCCCC3)cc2)sc2c1CCN(C(C)C)C2 | 7.55
CC(C)Cc1ccc(CN2CCCC(NC(=O)CCN3CCCO3)C2)cc1 (stereo unspecified) | 7.09
CC(C(=O)Nc1ccc2c(c1)OCCO2)N1Cc2ccccc2C1=O (stereo unspecified) | 0.66
CCCNc1c(NC(=O)C2CCC(C)CC2)c(=O)oc2ccccc12 (stereo unspecified) | -0.01
CCCSCCCNC(=O)Cn1cc2c(n1)CCC(C)C2 (stereo unspecified) | 2.95
NNC(=O)c1cccc(O)c1 | 22.4
O=C1[C@@H]2Cc3c([nH]c4ccccc34)C(c3cccc(Br)c3)N2C(=O)CN1C1CCN(Cc2ccccc2)CC1 (stereo partly specified) | 96.2

Compound | inhibition [%]
CCc1nnc(NC(=O)CSc2nnc(-c3ccco3)n2CC)s1 | -6.51
CN(Cc1ccccn1)C(=O)c1ccc2nc(Cc3cccc(Cl)c3)oc2c1 | 12.1
Cc1cc(NC(=O)c2ccc(C)o2)no1 | 10.6
C/C(CC1CC(COCCC(C)C)OC1=O)=N\NC(N)=S (stereo unspecified) | -3.4
OCCN1CCN(CC(O)COC(c2ccc(F)cc2)c2ccc(F)cc2)CC1 (stereo unspecified) | 4.14
CC(C)C(NC(=O)C1CCCCC1)C(=O)N1CCN(c2ccc(F)cc2)CC1 (stereo unspecified) | -4.19
O=C(Nc1cccc(C(F)(F)F)c1)/C(=C\c1ccco1)NC(=O)c1cccs1 | -12.3
COc1cccc(/C=N/n2c(COc3ccccc3)n[nH]c2=S)c1OC | 4.27
Cn1c(CCN2CCOCC2)nc2cc(NC(=O)c3cccs3)ccc21 | -6.62
Cc1nn(C)c(C(=O)Nc2cccc(Nc3ccccc3)c2)c1[N+](=O)[O-] | 6.99
CCOC(=O)c1[nH]c(C)c(C(=O)NC2CCCC2)c1C | -18
O=C(OC(C(=O)Nc1ccc(Cl)cc1C(F)(F)F)c1ccccc1)C1=COCCO1 (stereo unspecified) | 17.4
O=C(CSc1ccc2nnc(-c3cccnc3)n2n1)Nc1ccccc1 | 2.32
O=C(c1cc(-c2ccccc2)n[nH]1)N1CCN(S(=O)(=O)c2ccccc2)CC1 | -12.3
COc1ccc(-n2ncc3c(=O)n(CC(=O)OCc4ccccc4)cnc32)cc1 | 7.64
Cc1cc(S(=O)(=O)NC2CCCCC2)ccc1OCC(=O)N1CCOCC1 | 13.4
O=C(CN1CCN(c2ccccn2)CC1)Nc1ccc(Cl)c(C(F)(F)F)c1 | 33
CCOc1ccc(-c2cc(CCCC(=O)NCCCOC)no2)cc1 | -1.18
CN(C)C1=C(Cl)C(=O)N(c2ccc(Cl)c(Cl)c2)C1=O | 50.4
COc1ccc(NC(=O)CSc2nnc(C)c3ccccc23)cc1 | -2.04
Cc1cc(=O)oc2cc(O[C@@H]3O[C@H](CO)[C@@H](O)[C@H](O)[C@H]3O)ccc12 | 6.57
COc1cccc(NC(=O)CSc2ccc3nnc(-c4cccnc4)n3n2)c1 | 6.73

Compound | inhibition [%]
CC1CCC(C(=O)NC(C(=O)N2CCC(N3CCCCC3)CC2)C(C)C)CC1 (stereo unspecified) | -10.8
COCC1CCCCN1C(=O)c1ccc2oc(CCCc3ccccc3)nc2c1 (stereo unspecified) | 8.49
CCN(CC1CCCO1)C(=O)c1cc(COc2ccc(F)cc2F)on1 (stereo unspecified) | 27.4
CCOc1ccc(Cc2c(Cl)nc(N)nc2Cl)cc1 | 0.15
O=C(Nc1ccccc1N1CCCC1)c1ccc2c(c1)OCO2 | 37.4
CC1CCN(c2ccc(-c3cccs3)nn2)CC1 | 1.23
O=S(=O)(NCCC1=CCCCC1)c1ccc(F)cc1 | 9.18
Cc1ccc(-n2ncc3c2CCCC3NC(=O)CSc2ccccn2)cc1C (stereo unspecified) | -4.12
Cc1ccc(C(=O)COC(=O)CCN2C(=O)C3C4CC(C(Br)C4Br)C3C2=O)cc1 (stereo unspecified) | -2.6
CCC1CCCCN1CCCNC(=O)Cn1ncc2c(C)n(Cc3ccccc3Cl)c(C)c2c1=O (stereo unspecified) | -2.87
COc1ccccc1C(=O)Nc1sc2c(c1C(=O)NCc1ccco1)CCCC2 | 22.2
CC(=C/c1ccccc1)/C=C1/SC(N2CCOCC2)=NC1=O | 0.16
O=C(c1cccc(-n2cnnn2)c1)N1CC=C(c2ccccc2)CC1 | -1.45
CC[C@@]1(c2ccccc2OC)C(=O)N(C(=O)OC)N1C(=O)OC | -0.64
CCn1c(=O)cc(OCC(=O)N(C)c2ccccc2F)c2ccccc21 | -2.89
CCOC(=O)NC1c2ccccc2Oc2ccccc21 | 3.33
O=C(N/N=C/C(Br)=C\c1ccccc1)c1n[nH]c2c1CCC2 | 82.3
NC(=O)C1CCN(c2nc(C3CC3)nc3c2nnn3Cc2ccccc2Cl)CC1 | 2.03
CCOC(=O)N1CCC(NC(=O)CC2C(=O)NCCN2Cc2ccccc2)CC1 (stereo unspecified) | 1.83
O=S(=O)(NC(=NCc1ccccc1)c1ccccc1)c1ccc(Br)cc1 | 9.62
CCCC(=O)N(CCN1CCOCC1)c1nc2c(C)cccc2s1 | 3.59
C/C(=N/NC(=O)c1ccccn1)c1ccncc1 | 39.2

Compound | inhibition [%]
Clc1ccc(OCc2nn3c(-c4ccccc4)nnc3s2)c(Cl)c1 | 3.42
O=C1OCc2ccc(NC(=O)c3ccccc3C(=O)O)cc21 | -4.04
CSc1ncccc1C(=O)NC1CCN(Cc2ccccc2)CC1 | -19
COc1ccc(C(=O)Nc2nnc(SCC(=O)NCc3ccco3)s2)c(OC)c1 | 2.15
Cc1nc(-c2cccc(NS(=O)(=O)c3cccc4ccccc34)c2)cs1 | -4.52
COc1cccc(CN2CC(C(=O)NC3CCC(O)CC3)CCC2=O)c1 (stereo unspecified) | -6.8
COc1cccc(-c2ccc(NC(=O)C3CCCN(Cc4cc(C)[nH]n4)C3)cc2)c1 (stereo unspecified) | 4.82
CC(C)(C)c1ccc(C(=O)N2CCN(C(=O)c3ccco3)CC2)cc1 | -0.56
CCOC(=O)COc1nc(-c2ccc(Cl)cc2)cc(-c2ccco2)c1C#N | -2.24
O=C(C1CCC(Cn2c(=S)[nH]c3ccccc3c2=O)CC1)N1CCOCC1 (stereo unspecified) | 1.39
COc1ccc(-c2nc3c(c(SCC(=O)N4CCOCC4)n2)COC(C)(C)C3)cc1 | 2.06
CCC(CC)c1nnc(NC(=O)c2ccc(S(=O)(=O)N3CCc4ccccc4C3)cc2)s1 | 0.9
O=C(CSc1nnc(COc2ccccc2)o1)N1CCN(c2ccccc2)CC1 | 42.4
Cc1ccc(NC(=O)CCN2C(=O)C3C4CCC(C4)C3C2=O)cc1Cl (stereo unspecified) | 79.4
Cc1ccc(C(=O)NCC2(c3ccccc3)CCCC2)cc1 | 34.2
CC1(C)Cc2c(cnn2-c2ccc(F)cc2)C(NC(=O)CCN2CCCCO2)C1 (stereo unspecified) | 3.25
COc1ccccc1-n1c(SCC(=O)Nc2nnc(C)s2)nc2c(c1=O)SCC2 | 1.06
CCc1ccc(-c2cc3c(=O)n(CC(=O)NCCCN4CCN(C)CC4)ncn3n2)cc1 | 4.12
CCC1CCCCN1CCCNC(=O)CN1C(=O)c2cccnc2Oc2ccc(C)cc21 (stereo unspecified) | -7.28
COC(=O)CCC(NC(=O)OCc1ccccc1)C(=O)NC(CC(C)C)C(=O)OC (stereo unspecified) (Cbz-Glu(OMe)-Leu-OMe; configuration not given here) | -5.3
CCCCOC(=O)C1C2C=CC3(CN(CCc4ccccc4)C(=O)C13)O2 (stereo unspecified) | -14.6
CC(C)(C)c1ccc(-c2nc(C#N)c(N3CCC(C(N)=O)CC3)o2)cc1 | 69

Compound | inhibition [%]
Fc1ccc(C2CC(c3ccco3)n3ncnc3N2)cc1 (stereo unspecified) | 10.2
O=C1CC(c2cccs2)c2cc3c(cc2N1)OCO3 (stereo unspecified) | -8.67
CN(C(=O)CC1C(=O)NCCN1Cc1ccc2ccccc2c1)C1CCOCC1 (stereo unspecified) | 0.43
O=C(NCc1ccc(N2CCCC2=O)cc1)C1CCC(=O)N(Cc2ccccc2F)C1 (stereo unspecified) | -1.21
COCC1CCN(C(=O)CCc2nnc(C3(c4ccc(Cl)cc4)CCC3)o2)C1 (stereo unspecified) | 7.62
O=C(Nc1ccc(N2CCOCC2)cc1)Nc1ccc2nc(-c3ccco3)c(-c3ccco3)nc2c1 | 2.51
CC1CCN(c2ccc(-c3cccc(NC(=O)C(F)(F)F)c3)nn2)CC1 | 4.01
Cc1ccccc1NC(=O)c1cccc2nccnc12 | 3.09
CCOC(=O)C1=C(C)OC(N)=C(C#N)C1c1c(C)nn(-c2ccccc2)c1Cl (stereo unspecified) | -3.55
CCOc1ccccc1NC(=O)CCN(c1ccc(C)cc1)S(=O)(=O)c1ccccc1 | 1.4
COC(=O)c1c(NC(=O)Cn2cnc([N+](=O)[O-])n2)sc2c1CCC(C)C2 (stereo unspecified) | 8.03
COc1ccc(N2CCN(CC(=O)c3ccc(Cl)cc3)CC2)cc1 | -6.65
COC(=O)c1ccc(/C=N/NC(=O)C(=O)N2CCCCCC2)cc1 | 2.26
O=c1c2cc(N3CCOCC3)ccc2[nH]c(=S)n1CCCN1CCCCC1 | 11.2
O=C(CSc1nnc(CNC(=O)c2cccc(C(F)(F)F)c2)o1)NC1CCCC1 | -1.68
O=C(N1CCc2[nH]c3ccccc3c2C1)C(F)(F)F | 18.2
CCOc1ccccc1-c1nn2c(Cc3ccccc3)nnc2s1 | 9.22
Cc1cc(C)c(NC(=O)C(C)Sc2nc3ccc(N4C(=O)c5ccccc5C4=O)cc3s2)c(C)c1 (stereo unspecified) | -0.24
